Like-named read-outs stand apart in the source and are kept apart here.
Tests used:
[1] = tested on: BCG-unresponsive HR NMIBC CIS; conditions: cited from earlier work
[2] = tested on: participants with HR NMIBC unresponsive to prior intravesical BCG therapy

CCCCC(=O)OCC(=O)[C@]1(O)Cc2c(O)c3c(c(O)c2[C@@H](O[C@H]2C[C@H](NC(=O)C(F)(F)F)[C@H](O)[C@H](C)O2)C1)C(=O)c1c(OC)cccc1C3=O [valrubicin]
about 20%: complete response rate ([1]; in vivo)

Keytruda: Keytruda (pembrolizumab), an immune checkpoint therapy
19%: 12-month complete response rate ([1]; in vivo)
about 42%: complete response rate ([1]; […])
18%: 12-month complete response rate ([1]; in vivo, listed as pembrolizumab)

cetrelimab: IgG4/K antagonistic anti-PD-1 antibody, heavy chain of SEQ ID NO: 9 and light chain of SEQ ID NO: 10
4 (17.4%) subjects (%): COVID-19 associated Non-serious TEAEs ([2]; cutoff 20 Feb. 2023) | COVID-19 associated TEAEs ([2]; cutoff 20 Feb. 2023)
19 (79.2) n (%): ≥1 AE, any grade ([2]; cutoff 4 Apr. 2023)
10 (43.5%) subjects (%): Related TEAEs ([2]; cutoff 20 Feb. 2023) | Related TEAEs: Cetrelimab ([2]; cutoff 20 Feb. 2023)
12 (50.0%) subjects (%): Immune-related TEAEs ([2]; cutoff 4 Apr. 2023) | Related TEAEs ([2]; cutoff 4 Apr. 2023) | Related TEAEs: Cetrelimab ([2]; cutoff 4 Apr. 2023)
4 (16.7) n (%): Urinary tract infection, any grade ([2]; cutoff 4 Apr. 2023)
0 n (%): Diarrhea, Grade ≥3 ([2]; cutoff 4 Apr. 2023) | Dysuria, Grade ≥3 ([2]; cutoff 4 Apr. 2023) | Micturition urgency, Grade ≥3 ([2]; cutoff 4 Apr. 2023) | Noninfective cystitis, Grade ≥3 ([2]; cutoff 4 Apr. 2023) | Noninfective cystitis, any grade ([2]; cutoff 4 Apr. 2023) | Pollakiuria, Grade ≥3 ([2]; cutoff 4 Apr. 2023) | Pollakiuria, any grade ([2]; cutoff 4 Apr. 2023) | Pruritus, Grade ≥3 ([2]; cutoff 4 Apr. 2023) | Urinary tract infection, Grade ≥3 ([2]; cutoff 4 Apr. 2023)
1 (4.3%) subjects (%): Related Serious TEAEs ([2]; cutoff 20 Feb. 2023) | Related Serious TEAEs: Cetrelimab ([2]; cutoff 20 Feb. 2023) | Related TEAEs Leading to Discontinuation: Cetrelimab ([2]; cutoff 20 Feb. 2023) | Related TEAEs Leading to Treatment Discontinuation ([2]; cutoff 20 Feb. 2023) | TEAEs Leading to Treatment Discontinuation ([2]; cutoff 20 Feb. 2023) | Serious TEAEs ([2]; cutoff 20 Feb. 2023, listed as CET)
19 (79.2%) subjects (%): TEAEs ([2]; cutoff 4 Apr. 2023, safety set 23 TAR-200, 24 CET)
2 (8.3) n (%): ≥1 AE, Grade ≥3 ([2]; cutoff 4 Apr. 2023)
51.5 days: Median time for grade 3 or higher irAEs to be resolved or improved ([2]; cutoff 20 Feb. 2023)
10 (43.5%) participants (%): Immune related TEAEs (irAEs) as reported by the investigator ([2]; cutoff 20 Feb. 2023)
50.0%: Participants with an irAE who required treatment with a steroid ([2]; cutoff 20 Feb. 2023, 10 with irAE)
5 (20.8) n (%): Diarrhea, any grade ([2]; cutoff 4 Apr. 2023) | Pruritus, any grade ([2]; cutoff 4 Apr. 2023)
21.7%: TEAE pruritus ([2]; cutoff 20 Feb. 2023)
1 (4.2) n (%): Dysuria, any grade ([2]; cutoff 4 Apr. 2023) | Micturition urgency, any grade ([2]; cutoff 4 Apr. 2023)
18 (78.3%) subjects (%): TEAEs ([2]; cutoff 20 Feb. 2023, treated 22 TAR-200, 23 CET)
2 (8.7%) subjects (%): Grade >=3 Related TEAEs ([2]; cutoff 20 Feb. 2023) | Grade >=3 Related TEAEs: Cetrelimab ([2]; cutoff 20 Feb. 2023) | Grade >=3 TEAEs ([2]; cutoff 20 Feb. 2023)
1 (4.2%) subjects (%): Grade >=3 Related TEAEs ([2]; cutoff 4 Apr. 2023) | Grade >=3 Related TEAEs: Cetrelimab ([2]; cutoff 4 Apr. 2023) | Grade >=3 TEAEs ([2]; cutoff 4 Apr. 2023) | Related TEAEs Leading to Discontinuation: Cetrelimab ([2]; cutoff 4 Apr. 2023) | Related TEAEs Leading to Treatment Discontinuation ([2]; cutoff 4 Apr. 2023) | TEAEs Leading to Treatment Discontinuation ([2]; cutoff 4 Apr. 2023)
0 subjects (%): Grade >=3 Related TEAEs: Insertion Procedure ([2]; cutoff 4 Apr. 2023) | Grade >=3 Related TEAEs: Removal Procedure ([2]; cutoff 4 Apr. 2023) | Grade >=3 Related TEAEs: TAR-200 ([2]; cutoff 4 Apr. 2023) | Grade >=3 Related TEAEs: Urinary Placement Catheter ([2]; cutoff 4 Apr. 2023) | Related Serious TEAEs: Insertion Procedure ([2]; cutoff 4 Apr. 2023) | Related Serious TEAEs: Removal Procedure ([2]; cutoff 4 Apr. 2023) | Related Serious TEAEs: TAR-200 ([2]; cutoff 4 Apr. 2023) | Related Serious TEAEs: Urinary Placement Catheter ([2]; cutoff 4 Apr. 2023) | Related TEAEs Leading to Discontinuation: Insertion Procedure ([2]; cutoff 4 Apr. 2023) | Related TEAEs Leading to Discontinuation: Removal Procedure ([2]; cutoff 4 Apr. 2023) | Related TEAEs Leading to Discontinuation: TAR-200 ([2]; cutoff 4 Apr. 2023) | Related TEAEs Leading to Discontinuation: Urinary Placement Catheter ([2]; cutoff 4 Apr. 2023) | Related TEAEs with Fatal Outcome ([2]; cutoff 4 Apr. 2023) | Related TEAEs with Fatal Outcome: Cetrelimab ([2]; cutoff 4 Apr. 2023) | Related TEAEs with Fatal Outcome: Insertion Procedure ([2]; cutoff 4 Apr. 2023) | Related TEAEs with Fatal Outcome: Removal Procedure ([2]; cutoff 4 Apr. 2023) | Related TEAEs with Fatal Outcome: TAR-200 ([2]; cutoff 4 Apr. 2023) | Related TEAEs with Fatal Outcome: Urinary Placement Catheter ([2]; cutoff 4 Apr. 2023) | Related TEAEs: Insertion Procedure ([2]; cutoff 4 Apr. 2023) | Related TEAEs: Removal Procedure ([2]; cutoff 4 Apr. 2023) | Related TEAEs: TAR-200 ([2]; cutoff 4 Apr. 2023) | Related TEAEs: Urinary Placement Catheter ([2]; cutoff 4 Apr. 2023) | TEAEs with Fatal Outcome ([2]; cutoff 4 Apr. 2023) | COVID-19 associated Serious TEAEs ([2]; cutoff 20 Feb. 2023) | Grade >=3 Related TEAEs: Insertion Procedure ([2]; cutoff 20 Feb. 2023) | Grade >=3 Related TEAEs: Removal Procedure ([2]; cutoff 20 Feb. 2023) | Grade >=3 Related TEAEs: TAR-200 ([2]; cutoff 20 Feb. 2023) | Grade >=3 Related TEAEs: Urinary Placement Catheter ([2]; cutoff 20 Feb. 2023) | Related Serious TEAEs: Insertion Procedure ([2]; cutoff 20 Feb. 2023) | Related Serious TEAEs: Removal Procedure ([2]; cutoff 20 Feb. 2023) | Related Serious TEAEs: TAR-200 ([2]; cutoff 20 Feb. 2023) | Related Serious TEAEs: Urinary Placement Catheter ([2]; cutoff 20 Feb. 2023) | Related TEAEs Leading to Discontinuation: Insertion Procedure ([2]; cutoff 20 Feb. 2023) | Related TEAEs Leading to Discontinuation: Removal Procedure ([2]; cutoff 20 Feb. 2023) | Related TEAEs Leading to Discontinuation: TAR-200 ([2]; cutoff 20 Feb. 2023) | Related TEAEs Leading to Discontinuation: Urinary Placement Catheter ([2]; cutoff 20 Feb. 2023) | Related TEAEs with Fatal Outcome ([2]; cutoff 20 Feb. 2023) | Related TEAEs with Fatal Outcome: Cetrelimab ([2]; cutoff 20 Feb. 2023) | Related TEAEs with Fatal Outcome: Insertion Procedure ([2]; cutoff 20 Feb. 2023) | Related TEAEs with Fatal Outcome: Removal Procedure ([2]; cutoff 20 Feb. 2023) | Related TEAEs with Fatal Outcome: TAR-200 ([2]; cutoff 20 Feb. 2023) | Related TEAEs with Fatal Outcome: Urinary Placement Catheter ([2]; cutoff 20 Feb. 2023) | Related TEAEs: Insertion Procedure ([2]; cutoff 20 Feb. 2023) | Related TEAEs: Removal Procedure ([2]; cutoff 20 Feb. 2023) | Related TEAEs: TAR-200 ([2]; cutoff 20 Feb. 2023) | Related TEAEs: Urinary Placement Catheter ([2]; cutoff 20 Feb. 2023) | TEAEs with Fatal Outcome ([2]; cutoff 20 Feb. 2023)
4.3 subjects (%): Serious TEAEs ([2]; cutoff 20 Feb. 2023)
2 (8.3%) subjects (%): Grade 3 or higher Immune-related TEAEs ([2]; cutoff 4 Apr. 2023) | Related Serious TEAEs ([2]; cutoff 4 Apr. 2023) | Related Serious TEAEs: Cetrelimab ([2]; cutoff 4 Apr. 2023) | Serious TEAEs ([2]; cutoff 4 Apr. 2023)
1: Participants given steroid for irAEs of toxicity grade 3 or higher ([2]; cutoff 20 Feb. 2023, oral)

nadofaragene firadenovec
23%: 12-month complete response rate ([1]; in vivo)

atezolizumab: other treatment option for BCG-unresponsive HR NMIBC CIS
15%: 12-month complete response rate ([1]; in vivo)

Source: patent US20260174788A1 (priority 2023, published 2026)
